Tests used:
[1] = Levels of Mn porphyrins in tumor, muscle and liver of the sc flank 4T1 mouse study (LCMS/MS); conditions: 2 mg/kg
PC3 cells = test: Clonogenic survival of PC3 cells with MnP alone or with radiation and ascorbate; type: cell-based; conditions: listed as MnTFE-2-PyP^5+
Description: Aggressive prostate tumor PC-3 cells were treated overnight with PBS, MnTE-2-PyP^5+ (Mn1), or MnTFE-2-PyP^5+ (Mn3) using doses of 0.1 μM, 0.5 μM, and 1 μM. […] Each sample was serially diluted, and seeded into 6-well plates at 500 cells/well in three technical replicates. The cells were allowed to grow for 11 days then fixed with 70% EtOH and stained in 0.5% crystal violet and 25% methanol. Colonies containing 50 or more cells were counted and reported as the surviving fraction of cells seeded, normalized to plating efficiency of untreated cells at the same density. These experiments were repeated in triplicate and the mean and SEM were reported.
FIG. 3 depicts the results from an examination of the effectiveness of MnTFE-2-PyP^5+ (Mn3, FIG. 1, Formula II) in killing the radiation-resistant prostate cancer cell line (PC3) compared with its non-fluorinated analog, MnTE-2-PyP^5+ (Mn1, FIG. 1)). […] Fluoro porphyrins distribute less in vivo than do non-fluoro analogs (FIG. 6) but seem to have kinetic advantage in producing larger therapeutic effects.

[2] = Blood pressure drop (hypotension) after iv MnP; conditions: given iv
stroke model = test: Stroke model; type: in vivo
Excerpt: In addition to such problems that control the formation of a variety of compounds in the final preparation, the impact of 3 fluorine atoms at the end of the chains may have a detrimental impact on the synthesis and metallation steps. Two strong electron-withdrawing effects from opposite sides of the oxygen atoms—from the nitrogen atoms and from the fluorine atoms—destabilize the ether linkage and preclude the formation of the porphyrin and its Mn complex. Finally, the design of such a molecule having polar fluorine atoms along with polar oxygen atoms, based on our present knowledge, would end up with reduced lipophilicity and therefore reduced bioavailability. […] However its redox properties allow it to be protective in a stroke model if given intracerebroventricularly.

4T1 breast tumor = test: Mouse flank 4T1 tumor radio- and chemosensitization study, MnP 0.2 mg/kg; type: in vivo; conditions: triple combination MnP 0.2 mg/kg sc + ascorbate + radiation

Row | Compound | distribution in tumor, fold less than MnTnBuOE-2-PyP^5+ [1] [fold] | cytotoxicity towards radiation-resistant prostate cancer cell line (PC3 cells) | blood pressure drop [2] | protection in a stroke model (stroke model; given intracerebroventricularly) | protection in a stroke model (stroke model; given subcutaneously) | tumor growth inhibition (4T1 breast tumor)
1 | FCC[n+]1ccccc1C1=C2C=CC3=[N+]2[Mn]24[n]5c1ccc5C(c1cccc[n+]1CCF)=C1C=CC(=[N+]12)C(c1cccc[n+]1CCF)=c1ccc([n]14)=C3c1cccc[n+]1CCF [Mn3, Mn(III) 5,10,15,20-tetra(2-fluoroethylpyridinium-2-yl)porphinato pentachloride] | ~3 | superior cytotoxicity | no blood pressure drop | – | – | –
2 | Mn(III) ortho N-butoxyethylpyridylporphyrin [Mn2, reference compound] | – | – | does | protective | does not offer protection | Strong tumor suppression
3 | MnTnHex-2-PyP^5+ | – | – | – | – | does | –

From US11344574B2, “Fluoro substituted porphyrin compounds, pharmaceutical compositions comprising the same, and methods of preparing and using the same” (Duke University, priority 2017, dated 2022)
